Experimental data taken from PubChem BioAssay AID198 (DTP/NCI, 2004).
Toxic doses and inconclusive results are not listed. A number of entries come with more than one value. The list is limited to them. The source may hold further records. Values that stand side by side differ, and nothing given here explains why; dose, time, organism, isomer or construct need not be as stated for each record.

Tested on: B16 melanoma ip, C57BL/6 mice, median survival T/C
Experiment: NCI In Vivo Anticancer Drug Screen. Data for tumor model B16 Melanoma (intraperitoneal) in C57BL/6 mice
Settings: endpoint: median survival time, schedule: Q01DX009 (ip), vehicle: saline, higher = longer survival
Procedure: The antitumor activity of compounds was measured in mice bearing transplantable tumors. Survival or tumor size were measured and the results are expressed as the measurement made in the treated group (T) divided by the measurement made in the vehicle treated control group (C). The tumor model used in this assay is B16 Melanoma (intraperitoneal) in C57BL/6 mice

Structure (SMILES) | T/C (dose: 0.38 mg/kg/injection) | T/C (dose: 50.0 mg/kg/injection)
O=c1[nH]cc(N(CCCl)CCCl)c(=O)[nH]1 | 109 % of control, 112 % of control, 157 % of control | –
O=P1(N(CCCl)CCCl)NCCCO1 (configuration not stated) | – | 96 % of control and 153 % of control
